Measured values: PMC5539426
These are yes or no findings as the source states them, for the method shown. Binding seen in cells or lysates may run through a third protein. Some binding calls cover weakened binding; strength is not graded here. Where a sequence is shown, tags or fusion partners need not be part of it.

T1: TatBC^F94D-His complex (TatB and C-terminally His-tagged TatC F94D) (E. coli) (UniProt P69425+P69423)
T1 sequence 1: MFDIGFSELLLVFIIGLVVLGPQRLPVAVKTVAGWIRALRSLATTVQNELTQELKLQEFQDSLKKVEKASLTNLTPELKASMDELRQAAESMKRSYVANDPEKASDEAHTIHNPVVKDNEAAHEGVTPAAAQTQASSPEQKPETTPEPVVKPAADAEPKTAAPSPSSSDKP
T1 sequence 2: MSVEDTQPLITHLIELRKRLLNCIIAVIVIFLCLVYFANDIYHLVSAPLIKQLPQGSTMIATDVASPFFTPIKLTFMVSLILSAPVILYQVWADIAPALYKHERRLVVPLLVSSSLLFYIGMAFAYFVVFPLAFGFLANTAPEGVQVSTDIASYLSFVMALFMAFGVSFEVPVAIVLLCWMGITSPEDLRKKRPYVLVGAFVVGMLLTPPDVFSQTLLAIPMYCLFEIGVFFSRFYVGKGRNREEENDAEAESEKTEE

T2: TatBC-His complex (TatB and C-terminally His-tagged TatC) (E. coli) (UniProt P69425+P69423)
T2 sequence 1: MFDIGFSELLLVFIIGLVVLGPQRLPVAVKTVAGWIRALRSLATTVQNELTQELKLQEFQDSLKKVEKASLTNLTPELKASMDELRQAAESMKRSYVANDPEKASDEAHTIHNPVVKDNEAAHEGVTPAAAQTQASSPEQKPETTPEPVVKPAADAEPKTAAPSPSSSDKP
T2 sequence 2: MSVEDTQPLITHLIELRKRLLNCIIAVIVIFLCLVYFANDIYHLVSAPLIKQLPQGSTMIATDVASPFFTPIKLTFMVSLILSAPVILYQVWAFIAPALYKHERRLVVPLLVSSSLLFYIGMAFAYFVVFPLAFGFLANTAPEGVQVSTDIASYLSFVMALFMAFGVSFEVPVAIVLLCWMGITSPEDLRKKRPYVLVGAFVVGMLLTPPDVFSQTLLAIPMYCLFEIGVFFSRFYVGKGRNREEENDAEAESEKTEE

T3: C-terminally His-tagged TatC (E. coli) (UniProt P69423)
T3 sequence: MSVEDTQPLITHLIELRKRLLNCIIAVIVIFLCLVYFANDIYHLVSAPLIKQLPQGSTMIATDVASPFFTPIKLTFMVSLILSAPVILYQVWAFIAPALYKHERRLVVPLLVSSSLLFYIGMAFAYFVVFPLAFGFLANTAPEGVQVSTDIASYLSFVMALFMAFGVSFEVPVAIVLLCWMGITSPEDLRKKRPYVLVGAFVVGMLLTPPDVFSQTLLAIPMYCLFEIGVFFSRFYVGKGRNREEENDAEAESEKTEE


Columns and labels:
Test in all cases: pull-down; TatB, C-terminally His-tagged TatC and C-terminally FLAG-tagged substrate coproduced in E. coli DADE-P (or DADE); cells lysed, solubilised with digitonin 1 h at 4°C; TatC-His isolated on Ni-charged beads; wash 50 mM NaH2PO4 pH 8.0, 300 mM NaCl, 40 mM imidazole, 0.03% digitonin; elution with 700 mM imidazole; eluate blotted with anti-His, anti-TatB and anti-FLAG
[1] = molecular target: T1, TatBC^F94D-His complex (TatB and C-terminally His-tagged TatC F94D) (E. coli)
[2] = molecular target: T2, TatBC-His complex (TatB and C-terminally His-tagged TatC) (E. coli)
[3] = molecular target: T3, C-terminally His-tagged TatC (E. coli)

| Binder | binding [1] | binding [2] | binding [3] |
| --- | --- | --- | --- |
| FLAG-tagged SufI S12L/G13L/I14L/A15L variant (protein, UniProt P26648 28-470) MSLSRRQFIQALLLLLCAGAVPLKASAAGQQQPLPVPPLLESRRGQPLFMTVQRAHWSFTPGTRASVWGINGRYLGPTIRVWKGDDVKLIYSNRLTENVSMTVAGLQVPGPLMGGPARMMSPNADWAPVLPIRQNAATLWYHANTPNRTAQQVYNGLAGMWLVEDEVSKSLPIPNHYGVDDFPVIIQDKRLDNFGTPEYNEPGSGGFVGDTLLVNGVQSPYVEVSRGWVRLRLLNASNSRRYQLQMNDGRPLHVISGDQGFLPAPVSVKQLSLAPGERREILVDMSNGDEVSITCGEAASIVDRIRGFFEPSSILVSTLVLTLRPTGLLPLVTDSLPMRLLPTEIMAGSPIRSRDISLGDDPGINGQLWDVNRIDVTAQQGTWERWTVRADEPQAFHIEGVMFQIRNVNGAMPFPEDRGWKDTVWVDGQVELLVYFGQPSWAHFPFYFNSQTLEMADRGSIGQLLVNPVP |  | binds |  |
| C-terminally FLAG-tagged SufI with the G19L substitution in the signal peptide (protein, UniProt P26648 28-470) MSLSRRQFIQASGIALCALAVPLKASAAGQQQPLPVPPLLESRRGQPLFMTVQRAHWSFTPGTRASVWGINGRYLGPTIRVWKGDDVKLIYSNRLTENVSMTVAGLQVPGPLMGGPARMMSPNADWAPVLPIRQNAATLWYHANTPNRTAQQVYNGLAGMWLVEDEVSKSLPIPNHYGVDDFPVIIQDKRLDNFGTPEYNEPGSGGFVGDTLLVNGVQSPYVEVSRGWVRLRLLNASNSRRYQLQMNDGRPLHVISGDQGFLPAPVSVKQLSLAPGERREILVDMSNGDEVSITCGEAASIVDRIRGFFEPSSILVSTLVLTLRPTGLLPLVTDSLPMRLLPTEIMAGSPIRSRDISLGDDPGINGQLWDVNRIDVTAQQGTWERWTVRADEPQAFHIEGVMFQIRNVNGAMPFPEDRGWKDTVWVDGQVELLVYFGQPSWAHFPFYFNSQTLEMADRGSIGQLLVNPVP | binds | binds |  |
| C-terminally FLAG-tagged SufI with the A15L substitution in the signal peptide (protein, UniProt P26648 28-470) MSLSRRQFIQASGILLCAGAVPLKASAAGQQQPLPVPPLLESRRGQPLFMTVQRAHWSFTPGTRASVWGINGRYLGPTIRVWKGDDVKLIYSNRLTENVSMTVAGLQVPGPLMGGPARMMSPNADWAPVLPIRQNAATLWYHANTPNRTAQQVYNGLAGMWLVEDEVSKSLPIPNHYGVDDFPVIIQDKRLDNFGTPEYNEPGSGGFVGDTLLVNGVQSPYVEVSRGWVRLRLLNASNSRRYQLQMNDGRPLHVISGDQGFLPAPVSVKQLSLAPGERREILVDMSNGDEVSITCGEAASIVDRIRGFFEPSSILVSTLVLTLRPTGLLPLVTDSLPMRLLPTEIMAGSPIRSRDISLGDDPGINGQLWDVNRIDVTAQQGTWERWTVRADEPQAFHIEGVMFQIRNVNGAMPFPEDRGWKDTVWVDGQVELLVYFGQPSWAHFPFYFNSQTLEMADRGSIGQLLVNPVP | binds | binds |  |
| C-terminally FLAG-tagged SufI with the G13L substitution in the signal peptide (protein, UniProt P26648 28-470) MSLSRRQFIQASLIALCAGAVPLKASAAGQQQPLPVPPLLESRRGQPLFMTVQRAHWSFTPGTRASVWGINGRYLGPTIRVWKGDDVKLIYSNRLTENVSMTVAGLQVPGPLMGGPARMMSPNADWAPVLPIRQNAATLWYHANTPNRTAQQVYNGLAGMWLVEDEVSKSLPIPNHYGVDDFPVIIQDKRLDNFGTPEYNEPGSGGFVGDTLLVNGVQSPYVEVSRGWVRLRLLNASNSRRYQLQMNDGRPLHVISGDQGFLPAPVSVKQLSLAPGERREILVDMSNGDEVSITCGEAASIVDRIRGFFEPSSILVSTLVLTLRPTGLLPLVTDSLPMRLLPTEIMAGSPIRSRDISLGDDPGINGQLWDVNRIDVTAQQGTWERWTVRADEPQAFHIEGVMFQIRNVNGAMPFPEDRGWKDTVWVDGQVELLVYFGQPSWAHFPFYFNSQTLEMADRGSIGQLLVNPVP | binds | binds |  |
| TatB (protein, UniProt P69425 1-171) MFDIGFSELLLVFIIGLVVLGPQRLPVAVKTVAGWIRALRSLATTVQNELTQELKLQEFQDSLKKVEKASLTNLTPELKASMDELRQAAESMKRSYVANDPEKASDEAHTIHNPVVKDNEAAHEGVTPAAAQTQASSPEQKPETTPEPVVKPAADAEPKTAAPSPSSSDKP |  |  | binds |

Next, values leading:

| binding [1] | binding [2] | binding [3] | Binder |
| --- | --- | --- | --- |
| no binding | binds |  | C-terminally FLAG-tagged SufI with its native signal peptide (protein, UniProt P26648 28-470) MSLSRRQFIQASGIALCAGAVPLKASAAGQQQPLPVPPLLESRRGQPLFMTVQRAHWSFTPGTRASVWGINGRYLGPTIRVWKGDDVKLIYSNRLTENVSMTVAGLQVPGPLMGGPARMMSPNADWAPVLPIRQNAATLWYHANTPNRTAQQVYNGLAGMWLVEDEVSKSLPIPNHYGVDDFPVIIQDKRLDNFGTPEYNEPGSGGFVGDTLLVNGVQSPYVEVSRGWVRLRLLNASNSRRYQLQMNDGRPLHVISGDQGFLPAPVSVKQLSLAPGERREILVDMSNGDEVSITCGEAASIVDRIRGFFEPSSILVSTLVLTLRPTGLLPLVTDSLPMRLLPTEIMAGSPIRSRDISLGDDPGINGQLWDVNRIDVTAQQGTWERWTVRADEPQAFHIEGVMFQIRNVNGAMPFPEDRGWKDTVWVDGQVELLVYFGQPSWAHFPFYFNSQTLEMADRGSIGQLLVNPVP |
|  | binds |  | FLAG-tagged SufI C17L/A18L/G19L/A20L variant (protein, UniProt P26648 28-470) MSLSRRQFIQASGIALLLLLVPLKASAAGQQQPLPVPPLLESRRGQPLFMTVQRAHWSFTPGTRASVWGINGRYLGPTIRVWKGDDVKLIYSNRLTENVSMTVAGLQVPGPLMGGPARMMSPNADWAPVLPIRQNAATLWYHANTPNRTAQQVYNGLAGMWLVEDEVSKSLPIPNHYGVDDFPVIIQDKRLDNFGTPEYNEPGSGGFVGDTLLVNGVQSPYVEVSRGWVRLRLLNASNSRRYQLQMNDGRPLHVISGDQGFLPAPVSVKQLSLAPGERREILVDMSNGDEVSITCGEAASIVDRIRGFFEPSSILVSTLVLTLRPTGLLPLVTDSLPMRLLPTEIMAGSPIRSRDISLGDDPGINGQLWDVNRIDVTAQQGTWERWTVRADEPQAFHIEGVMFQIRNVNGAMPFPEDRGWKDTVWVDGQVELLVYFGQPSWAHFPFYFNSQTLEMADRGSIGQLLVNPVP |
| binds | binds |  | C-terminally FLAG-tagged SufI with the S12L substitution in the signal peptide (protein, UniProt P26648 28-470) MSLSRRQFIQALGIALCAGAVPLKASAAGQQQPLPVPPLLESRRGQPLFMTVQRAHWSFTPGTRASVWGINGRYLGPTIRVWKGDDVKLIYSNRLTENVSMTVAGLQVPGPLMGGPARMMSPNADWAPVLPIRQNAATLWYHANTPNRTAQQVYNGLAGMWLVEDEVSKSLPIPNHYGVDDFPVIIQDKRLDNFGTPEYNEPGSGGFVGDTLLVNGVQSPYVEVSRGWVRLRLLNASNSRRYQLQMNDGRPLHVISGDQGFLPAPVSVKQLSLAPGERREILVDMSNGDEVSITCGEAASIVDRIRGFFEPSSILVSTLVLTLRPTGLLPLVTDSLPMRLLPTEIMAGSPIRSRDISLGDDPGINGQLWDVNRIDVTAQQGTWERWTVRADEPQAFHIEGVMFQIRNVNGAMPFPEDRGWKDTVWVDGQVELLVYFGQPSWAHFPFYFNSQTLEMADRGSIGQLLVNPVP |
